Reference: article PMC4336329 (PLoS ONE, 2015)
About 2,200 (0.71%) of roughly 310,000 compounds showed an effect of 50% or more. The effect is printed as a negative number. Some of the results follow.

Each compound was assayed against human ether-à-go-go-related gene (hERG) potassium channel (human, UniProt Q12809) (assay: primary screen, population patch clamp on CHO cells stably expressing hERG).
human ether-à-go-go-related gene (hERG) potassium channel, sequence (Q12809 whole entry, looked up): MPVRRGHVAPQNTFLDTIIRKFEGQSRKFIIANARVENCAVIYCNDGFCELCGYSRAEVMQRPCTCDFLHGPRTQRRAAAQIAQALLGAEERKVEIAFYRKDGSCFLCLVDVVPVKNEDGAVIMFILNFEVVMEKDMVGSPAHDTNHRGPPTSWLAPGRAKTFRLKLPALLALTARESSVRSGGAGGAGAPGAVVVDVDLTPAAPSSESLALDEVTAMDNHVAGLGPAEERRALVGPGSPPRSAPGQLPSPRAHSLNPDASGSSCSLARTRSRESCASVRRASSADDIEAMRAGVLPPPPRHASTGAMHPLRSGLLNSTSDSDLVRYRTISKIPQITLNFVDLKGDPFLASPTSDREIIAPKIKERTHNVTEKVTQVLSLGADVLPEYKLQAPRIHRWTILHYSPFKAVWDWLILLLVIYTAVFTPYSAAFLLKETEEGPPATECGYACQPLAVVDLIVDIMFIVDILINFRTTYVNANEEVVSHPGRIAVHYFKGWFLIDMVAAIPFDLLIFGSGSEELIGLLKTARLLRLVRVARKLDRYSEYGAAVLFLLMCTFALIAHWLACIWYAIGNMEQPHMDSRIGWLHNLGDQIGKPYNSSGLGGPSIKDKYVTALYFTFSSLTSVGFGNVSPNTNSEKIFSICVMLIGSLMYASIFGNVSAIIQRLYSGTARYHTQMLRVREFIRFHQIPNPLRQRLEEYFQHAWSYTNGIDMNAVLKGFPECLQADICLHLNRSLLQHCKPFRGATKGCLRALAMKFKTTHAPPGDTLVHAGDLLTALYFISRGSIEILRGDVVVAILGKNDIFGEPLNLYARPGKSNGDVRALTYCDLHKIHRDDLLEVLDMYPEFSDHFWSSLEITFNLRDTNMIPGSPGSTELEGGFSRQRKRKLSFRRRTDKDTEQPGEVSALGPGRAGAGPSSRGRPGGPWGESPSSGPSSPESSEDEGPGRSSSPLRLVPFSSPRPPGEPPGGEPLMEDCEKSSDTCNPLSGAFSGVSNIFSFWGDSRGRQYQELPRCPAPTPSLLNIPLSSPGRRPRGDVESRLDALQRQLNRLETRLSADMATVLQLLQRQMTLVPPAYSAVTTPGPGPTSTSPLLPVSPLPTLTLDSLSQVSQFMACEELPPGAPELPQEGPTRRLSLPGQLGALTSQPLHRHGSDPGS

Compound	hERG current change (%, negative = inhibition) at 1uM
CC(C)Cc1nc2sc3c(SCC(N)=O)ncnc3c2c2c1CCC2	16%
COc1cc(C(=O)N2CCN(c3ccc(C)cc3C)CC2)cc(OC)c1OC	0.739%
COc1ccc2c(CCNC(=O)c3ccc([N+](=O)[O-])cc3)c[nH]c2c1	12.8%
Oc1ccccc1C1=NCCNC(C(F)(F)C(F)F)=C1	-0.129%
Cc1ccc(S(=O)(=O)N/N=C/c2ccc(C(=O)O)cc2)cc1	13.7%
COc1ccc(C(=O)Nc2c(N)nc(SCC(=O)Nc3ccc(NC(C)=O)cc3)[nH]c2=O)cc1OC	15.8%
COCCNc1nc(-c2cc(-c3ccccc3)on2)cc(C(C)C)n1	8.84%
COc1cccc(-c2cc(=O)c3cc(NC(C)=O)ccc3[nH]2)c1	10.7%
CCOC(=O)N1CCN(C(=O)c2ccc3c(c2)NC(=O)C(N2CCOCC2)S3)CC1 (centres unmarked)	14.4%
COC(=O)c1ccc(Nc2nc(C)cc(C)n2)cc1	11.3%
O=C(c1cncc(Br)c1)N1CCN(S(=O)(=O)c2ccccc2C(F)(F)F)CC1	10.4%
O=C(NCc1ccccc1)Nc1cccn(Cc2ccc(F)cc2)c1=O	8.43%
CCC1c2ccc(C)n2CCN1C(=O)Nc1ccccc1C(=O)OC (centres unmarked)	7.36%
CN1CC(=O)N(CC(=O)Nc2ccc(F)cc2)c2ccccc2C1=O	14.6%
CCCCn1c(=O)c(CCC(=O)OCC(=O)NC(=O)NCCOC)nc2ccccc21	2.11%
COc1ccccc1-c1c(C(F)(F)F)oc2cc(OC(=O)c3ccccc3[N+](=O)[O-])ccc2c1=O	12.9%
COc1ccc(-c2cc(C(F)F)n3ncc(C(=O)N4CCCc5ccccc54)c3n2)cc1	15.6%
Cc1ccc(S(=O)(=O)NCC(=O)N(CC(=O)NC(C)(C)C)Cc2ccc3c(c2)OCO3)cc1	13%
O=C(Nc1ccc(N2CCOCC2)cc1)c1ccc(-c2ccccc2[N+](=O)[O-])o1	7.69%

Compound	hERG current change (%, negative = inhibition) at 1uM
Nc1c(C(=O)O)sc2nc(-c3ccc(F)cc3)cc(-c3ccccc3)c12	9.31%
O=C(COc1ccccc1)N=C1SC2CS(=O)(=O)CC2N1CCc1ccccc1 (centres unmarked)	3.44%
COc1ccccc1NC(=O)Cn1nc(-c2ccncc2)nc1SCC(=O)NC1CCCC1	-6.71%
Cc1ccc(S(=O)(=O)Cn2nnnc2C(C(C)C)N2CCN(Cc3ccco3)CC2)cc1 (centres unmarked)	14.2%
CCOC(=O)c1sc(SC)c2c1CCC/C2=N/OC	10.3%
O=C1c2cccc3cccc(c23)C(=O)N1CCCSc1ncn[nH]1	13.7%
O=S(=O)(NCCCO)c1ccc2c(c1)Cc1cc(S(=O)(=O)NCCCO)ccc1-2	14.4%
O=C(CNC(=S)NC(=O)c1cccs1)c1ccccc1	-1.43%
CCCCCCCCO	13.8%
COc1cc(C2NC(=O)NC(C)=C2C(=O)NCc2ccccc2)c(Cl)cc1O (centres unmarked)	13.7%
COc1ccc(-c2nnc(SCC(=O)N3CCCC3)o2)cc1	8.1%
Cc1ccc(S(=O)(=O)N2CCOC2CNC(=O)C(=O)NCCCN2CCOCC2)cc1 (centres unmarked)	13%
Fc1ccc(N2CCN(Cc3cnc(N4CCOCC4)s3)CC2)cc1	-2.04%
O=C(CCNC(=O)c1ccc(Cl)cc1)Nc1cccc(S(=O)(=O)N2CCCCCC2)c1	-11.9%
CC1CCCN(C(=O)C2CCN(S(=O)(=O)c3cccc4cccnc34)CC2)C1 (centres unmarked)	0.528%
N#Cc1cc([N+](=O)[O-])ccc1Oc1cccc(/C=N/NC(=O)c2cccc(Cl)c2)c1	17.9%
CCOC(=O)CN1c2ccccc2NC(=O)CC1C (centres unmarked)	0.853%
c1cc(-c2nn[nH]n2)ccc1CN1CCCCC1	12.8%
O=S(=O)(Nc1nc2ccccc2nc1NCc1ccco1)c1ccc(Cl)cc1	8.47%

Compound	hERG current change (%, negative = inhibition) at 1uM
CCn1c(SC)nnc1-c1nn(-c2ccccc2)ccc1=O	15.5%
CN(C)c1ccc(C(c2nnnn2C(C)(C)C)N2CCN(C(=O)c3ccco3)CC2)cc1 (centres unmarked)	3.93%
Cc1ccc(OCC(=O)Nc2ccc3c(c2)C(=O)NC3=O)c(C)c1	7.92%
O=c1c2ccccc2[nH]c(=S)n1Cc1ccccc1	13.9%
Cc1ccc(NC(=S)N(Cc2ccco2)C(C)c2cccs2)c(Cl)c1 (centres unmarked)	8.42%
Cc1ccc(N(CC(=O)NC2CCCC2)C(=O)c2ccc(C)s2)cc1	6.67%
O=C(Nc1nc2ccccc2s1)c1ccccc1	18.3%
CCOC(=O)C1CCN(C(=O)CCc2ccc(S(=O)(=O)NC(C)C)cc2)CC1	15.4%
COc1ccc2nc(NC(=O)CSc3nnc(-c4ccoc4C)n3C)sc2c1	8.42%
Cc1ccc2c(C)c(C(=O)Nc3c(C)n(C)n(-c4ccccc4)c3=O)oc2c1	13.3%
CC1CCN(C(=O)c2ccc(-c3ccccc3Cl)o2)CC1	6.31%
CCOc1ccc(S(=O)(=O)NCCC(=O)OCC(=O)N2CC(=O)Nc3ccccc32)cc1	10.8%
OCCCNc1nc(-c2ccc(Cl)cc2)nc2ccccc12	-3.18%
Cc1sc(NC(=S)Nc2ccc(F)cc2)c(C(N)=O)c1C	9.15%
CCc1ccccc1NC(=O)C1C(c2ccccc2)C1(Cl)Cl (centres unmarked)	17.5%
O=C(O)CSc1nnc(NC(=O)CN2CCOCC2)s1	13.7%
CCOc1cc(NC(=S)NCC2CCCO2)c(OCC)cc1NC(=O)c1cccc(C)c1 (centres unmarked)	14.5%
Cc1ccc(C(=O)OCC(=O)NCc2cccs2)cc1C	11.3%
